Experimental data reported in paper PMC12040169 (PLOS Biology, 2025).
Some of the results follow.

These compounds were tested on T1, C. trachomatis L2/434/Bu expressing GFP (CTL2-GFP). Conditions: total inclusion area; 28.5 h, 10 µM; inhibitor.
T1 construct: L2/434/Bu GFP intracellular growth in HeLa cells
Parameters: species or system HeLa; C. trachomatis total inclusion area by high-content imaging, normalised to DMSO
Outline: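 Imaging read-out: GFP inclusions and Hoechst nuclei captured by high-content imaging after fixation. Inclusion area/number = chlamydial growth; nuclei count = host cell viability. MIC calculated per earlier method.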

Structure (SMILES) | % of control remaining
CCCOc1cccn2c(N(CC(=O)N(C)C)C(C)=O)c(CC)nc12 [CBK147850] | 103.506
COc1cccc(CN(Cc2ccco2)Cc2cnc(C)n2C)c1 [CBK282494] | 110.802
CSc1ccccc1C(=O)Nc1nccs1 [CBK288225] | 94.4931
Cc1ccc(C)c(C(=O)C2=C(O)C(=O)N(CCN(C)C)C2c2ccc(O)cc2)c1 (stereo not drawn) [CBK265740] | 125.426
Cc1ccnc(NCC2CCN(Cc3cc(=O)n4ccccc4n3)C2)c1 (stereo not drawn) [CBK306003] | 10.4327
COc1ccc(/C(N)=N/OC(=O)Cc2ccc(Cl)cc2)cc1OC [CBK263272] | 109.66
Cc1ccnc(NS(=O)(=O)c2ccc(NC(=O)c3cc(-c4ccc(Br)cc4)nc4ccccc34)cc2)n1 [CBK263650] | 111.871
O=C(N[C@H]1CCCC[C@H]1N1CCCC1)N[C@H]1CCCC[C@H]1N1CCCC1 [CBK003419] | 117.816
COc1ccc(-n2ncc(-c3cccc(C(F)(F)F)c3)n2)cn1 [CBK112678] | 98.6666
CN1CCC[C@@H]2[C@H]1[C@@H](c1ccc(F)cc1)CN2C(=O)c1ccccn1 [CBK283081] | 98.3265
CC(C)c1noc([C@@H]2Cc3[nH]cnc3CN2C(=O)Nc2ccccc2)n1 [CBK288969] | 97.446
O=S(=O)(c1ccccc1)N(Cc1cc2ccccc2nc1O)CC1CCCO1 (stereo not drawn) [CBK269424] | 70.601
C=CCNC(=O)N[C@H]1CCN2C(=O)c3ccccc3NC(=O)[C@@H]2C1 [CBK289568] | 88.2988
COC(=O)c1c(C)oc2cc(Br)c(OCC(=O)c3ccc(Cl)cc3)cc12 [CBK264946] | 101.76
CCCC1CN(C)c2ccccc2C1=O (stereo not drawn) [CBK023527] | 72.5838
OC[C@]1(c2ccccc2)CC[C@H](N2CCCC2)CC1 [CBK016010] | 111.729
COc1ccc(CCC(=O)NCC(c2cccs2)N2CCOCC2)cc1 (stereo not drawn) [CBK304674] | 56.0479
COC1CCN(C2CCc3c(Cl)cc(Cl)cc32)CC1 (stereo not drawn) [CBK304883] | 48.2989
CC1CC(C)CN(C(=O)Cn2c(=O)n(C)c3ncccc32)C1 (stereo not drawn) [CBK283794] | 94.1792
COc1ccc2nc(-c3cccc(NC(=O)c4ccc(F)cc4)c3)cn2n1 [CBK287826] | 95.588
CN(C)CC1COc2ccccc2CN1C(=O)Cc1ccccc1F (stereo not drawn) [CBK285080] | 108.605
O=C(c1ccc(-c2nccnc2NCC2CC2)cc1)N1CCOCC1 [CBK036814] | 101.535
CCCc1[nH]nc(O)c1Cc1cc(F)ccc1Br [CBK075031] | 85.2336
O=C1C=C(N2CCC(CCC3CCN(C4=CC(=O)CCC4)CC3)CC2)CCC1 [CBK007126] | 99.5083
O=[N+]([O-])c1ccc(CN2CCC(Oc3cncc(OCc4ccc(Cl)c(Cl)c4)n3)C2)cc1 (stereo not drawn) [CBK084426] | 84.6766
O=C(O)CSc1nc2ccccc2n1Cc1ccccc1 [CBK262411] | 85.4407

Structure (SMILES) | % of control remaining
N#CCCCN1CCC(Oc2nccnc2OCc2cccnc2)CC1 [CBK083171] | 87.1613
CN1CCC(Cc2nc(-c3ccc(Cl)s3)n(CCO)n2)CC1 [CBK307025] | 69.7028
COc1ccc(N2C(=O)c3ccc(C(=O)OCC(=O)c4ccccc4Cl)cc3C2=O)c([N+](=O)[O-])c1 [CBK265514] | 94.9921
O=C1COc2ccccc2C/C=C/CC2(CCN(C(=O)c3n[nH]c4ccccc34)CC2)CN1 [CBK292021] | 97.7744
COc1ccc(CN2CCOC(C(=O)O)C2)cc1Cn1cncn1 (stereo not drawn) [CBK306919] | 56.234
Cc1cc([N+](=O)[O-])ccc1-c1ccc(C(=O)Nc2ccc(O)c(-c3nc4ccccc4s3)c2)o1 [CBK263421] | 108.597
Cc1cc(OCC(=O)Nc2ccccc2CO)cc(C)c1Br [CBK265094] | 106.42
CNC(=S)N1CCN(c2nccnc2NS(=O)(=O)Cc2ccccc2)CC1 [CBK049044] | 85.0731
c1ccc(Cc2csc(C3CN4CCCC4CO3)n2)cc1 (stereo not drawn) [CBK304202] | 77.654
Cc1nn(CC(=O)N(C)C2CCCCC2)c(=O)c2cc3occc3n12 [CBK283653] | 112.755
O=C(Nc1cccc(Cl)c1)c1cc2cc(O)ccc2cc1O [CBK016894] | 89.5497
O=C(CC(NC1CCCC1)C(=O)O)Nc1ccc(F)cc1 (stereo not drawn) [CBK266976] | 132.107
O=C(Cn1ccc([N+](=O)[O-])n1)NCc1ccco1 [CBK268999] | 104.305
COc1cc(CNc2ccc(N3CCCCC3)cc2)ccc1OCc1ccccc1F [CBK074472] | 73.4427
Cc1cc(CN(C)Cc2cnn(Cc3ccccc3)c2C)n[nH]1 [CBK283017] | 88.6973
COc1ccc(-c2ccc3c(c2)COC2(CCCNC2)O3)c(OC)c1 (stereo not drawn) [CBK105316] | 45.0823
CCOC(=O)c1[nH]c2ccccc2c1NC(=O)c1ccc(Br)cc1Cl [CBK160147] | 90.5747
CCc1cc(Br)ccc1S(=O)(=O)NCCCC(=O)OC [CBK044788] | 81.3879
CC(C)(C)NS(=O)(=O)c1ccc(CCC(=O)Nc2ccc(F)c(Cl)c2)cc1 [CBK266974] | 99.419
O=S(=O)(Nc1cccc2cccnc12)c1cccs1 [CBK043904] | 102.671
CSc1ncc(Cl)c(C(=O)Nc2sc3c(c2C(=O)NC2CCS(=O)(=O)C2)CCC(C)C3)n1 (stereo not drawn) [CBK268886] | 91.412
CC(C)C(=O)Nc1cc2cccnc2nc1-c1cccc(C(F)(F)F)c1 [CBK073657] | 94.4715
O=C(CCn1c(C(F)(F)F)cc2cccnc21)NCc1ccncc1 [CBK284841] | 100.607
CNc1nc(Cn2ncc(N3CCCN(C)CC3)cc2=O)cs1 [CBK307446] | 96.053
Cc1nc2c(c(=O)[nH]1)CCN(Cc1c(C)oc3ccccc13)C2 [CBK283994] | 102.159
